Source: publication PMC10668032
The list shows a part of the results. At the low end of the ranking the order means little.

What follows are sequences tested against SIX1 homeodomain (reference allele) (UniProt Q15475) (assay: universal protein binding microarray). Details: Universal all-10-mer PBM (8x60K, AMADID 030236), 300 nM GST-tagged protein, Alexa Fluor 488 anti-GST; buffer, salt, pH and temperature not stated; high values mean tight binding; most listed sequences are background and not binding sites; double strand, one strand shown.

Sequence	binding signal
GAGGGTGC	-0.196 E-score
ACATTAAG	-0.051 E-score
CTACATAG	-0.0401 E-score
TGATGCAA	-0.0104 E-score
AACTGAAG	-0.0689 E-score
ACCTTGAG	0.0283 E-score
AGGGTTGC	-0.274 E-score
GGCCCACC	-0.125 E-score
CCGGGCTC	-0.0408 E-score
CGGATTCC	0.247 E-score
CTTCTCCA	-0.0323 E-score
AACGACTC	-0.289 E-score
CATCGCCG	-0.0138 E-score
AACTAATA	0.124 E-score
CGATGGAA	-0.251 E-score
TCCGGGCA	-0.0183 E-score
ATAGAGTG	0.021 E-score
CCTGCAAC	-0.112 E-score
ACAGACGA	0.00351 E-score
GATATGCC	0.427 E-score
AGAAATTC	-0.0826 E-score
ATTATCGG	0.24 E-score
AAACCACA	-0.0104 E-score
ACTTAGAG	-0.056 E-score
ATAATCGA	0.123 E-score

Sequence	binding signal
ATAGACAA	0.0646 E-score
AATGTGGA	-0.0229 E-score
AAAGGGCA	0.0669 E-score
CCTCCGTC	0.00335 E-score
AGTGCTCC	-0.207 E-score
ATAGCCAA	0.218 E-score
AACTCACA	-0.139 E-score
GCTGTTCC	-0.205 E-score
CACCTCAA	-0.0381 E-score
CGACTTCA	-0.143 E-score
CAAAGTTA	-0.188 E-score
CTCCGTAA	-0.115 E-score
CTACGAAC	-0.0905 E-score
CTTCATTA	0.0482 E-score
CCCCGCTA	0.188 E-score
CCATTCGG	-0.016 E-score
CCAAACAG	-0.051 E-score
AGAGCTAG	0.00963 E-score
CATGAACC	-0.0472 E-score
GACGACGA	-0.102 E-score
AAAGGCTG	-0.0471 E-score
CCCAATAC	0.248 E-score
ACTACCAG	-0.0492 E-score
CATCGAAA	0.0666 E-score
ACCTACTA	0.0903 E-score

Sequence	binding signal
AGCACGCG	-0.113 E-score
CCCGCCTC	0.0254 E-score
CAGCTTTC	-0.202 E-score
ATCATTAG	0.281 E-score
CAGACCAC	-0.173 E-score
AAGTGTGG	-0.217 E-score
CCGGCGCA	0.0263 E-score
CCCAAAAA	-0.171 E-score
CCATTTTC	-0.191 E-score
CTAGAGCC	-0.184 E-score
TCACTGCA	0.0809 E-score
CGGCGAGA	0.0218 E-score
CGTTGATA	0.334 E-score
GCGTTTAA	-0.158 E-score
AAGCAGGA	0.0204 E-score
CAAGGTGG	-0.0251 E-score
AGTTATCC	0.295 E-score
AATAGCTA	0.0677 E-score
GGGGGCGA	0.0661 E-score
AAGGGTCT	-0.181 E-score
ATCTTGGG	0.0749 E-score
ACCATTAG	0.0888 E-score
CTTAATAC	0.281 E-score
CAGCCGTA	0.0272 E-score
CCGACGCG	-0.00796 E-score

Sequence	binding signal
ACAGACTA	-0.221 E-score
ACCCGATC	0.372 E-score
GGATGGGA	0.195 E-score
AAGACCAT	-0.0996 E-score
CGTAAACC	0.0445 E-score
ACTGCACA	0.0686 E-score
GGACACAC	0.0475 E-score
GCCTCATA	-0.157 E-score
ATCATTTG	0.244 E-score
GCACAAGC	-0.114 E-score
TATATCGA	0.387 E-score
AATGTAAC	-0.0329 E-score
TAATTGAA	-0.235 E-score
GTAGAGAA	0.0807 E-score
ACACTCAT	0.116 E-score
GAATTACC	-0.0736 E-score
TCCATTCA	0.03 E-score
GCTTACGA	-0.2 E-score
AAGGCATG	-0.223 E-score
GCTGGGGA	-0.017 E-score
TGCTGAAA	-0.148 E-score
AATCAGGG	0.152 E-score
AGATTTAC	-0.18 E-score
GAAAGATA	0.324 E-score
AGATGCAA	-0.14 E-score

Sequence	binding signal
CGGCGCGC	-0.131 E-score
AGAATCAC	-0.0728 E-score
TAGGCTCA	0.0413 E-score
CAACGCGA	-0.029 E-score
AAGCATGT	-0.0961 E-score
AAAGAAGA	-0.11 E-score
AGGGAGCC	-0.142 E-score
AACTAACC	-0.09 E-score
ACAGCCAA	-0.278 E-score
CTATTACA	0.0832 E-score
CTTGTGAC	-0.129 E-score
ACTGAGTA	0.069 E-score
GTCGGACA	-0.119 E-score
AAAACTCA	-0.0736 E-score
GGCTTAAC	-0.0876 E-score
CACATAAG	-0.0269 E-score
AAACTGAA	-0.182 E-score
AGAACCAC	-0.166 E-score
CATCGCGA	0.015 E-score
AGGTTCAA	0.0503 E-score
CGCTGATA	0.325 E-score
GCAATCCA	0.0921 E-score
ATCTCGCA	0.137 E-score
CGATGCAC	0.0365 E-score
CTTAGCTC	-0.093 E-score

Sequence	binding signal
AATATCTA	0.259 E-score
CAGTCATG	-0.152 E-score
CATAGGGA	0.0396 E-score
AGTATATA	0.306 E-score
GACCTACC	-0.13 E-score
CTATGGCA	-0.11 E-score
AGATAGGG	0.263 E-score
CGTGACGA	-0.025 E-score
AGTCTCGA	-0.051 E-score
ATTAAGAA	-0.0818 E-score
CGATTCTA	-0.0926 E-score
AGGTTCTG	-0.101 E-score
CTCGCCAC	-0.0146 E-score
ACCAGAAA	-0.0438 E-score
ATGAGGCG	-0.0314 E-score
GAAATGGC	-0.274 E-score
GATTGGCA	-0.116 E-score
GCGATAGC	0.165 E-score
AGAAGGCA	-0.0738 E-score
AGGAGGAC	-0.0962 E-score
AGGTCACA	-0.152 E-score
AAAAGGCG	-0.276 E-score
CCTCTGAG	0.0438 E-score
CTCGACAA	-0.134 E-score
GTCAAATA	-0.0524 E-score

Sequence	binding signal
CACCAGGC	0.175 E-score
CTTGGGAA	-0.0699 E-score
CCCTCTAG	0.0131 E-score
GCGGATCC	0.348 E-score
AGTTCAGC	-0.0858 E-score
TAAACCGA	0.0679 E-score
CACCCGTA	0.229 E-score
GCGCCTGA	-0.105 E-score
CGATATGC	0.428 E-score
GCGGAAAA	-0.163 E-score
CAATTCTG	-0.146 E-score
ACTCTTTA	-0.222 E-score
ACGCGTTC	-0.169 E-score
GCATTGTA	0.0733 E-score
AGCGCAAT	-0.0885 E-score
CCGCCTTA	0.103 E-score
CACAAAGG	-0.0533 E-score
AGCCCTCA	-0.0969 E-score
TGCTCGAA	-0.268 E-score
AACGCCTC	-0.191 E-score
ACAAAGGT	-0.138 E-score
ACGGCGAT	0.29 E-score
